In the supplement of paper PMC10037445:
The full ranking holds about 2,900 compounds; the median of “NF-kB SEAP reporter activity, fold change vs agonist alone” is about 0.99, and the highest 2% start at about 2.6. The list shows a part of the results.

Tests used:
[1] = system: RAW-Dual; assay: NF-kB SEAP reporter activity, fold change vs agonist alone; cytotoxicity flag (confluency mask): not cytotoxic; higher = enhanced NF-kB activity
In short: (§1)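 After 50 nL of library stock was delivered by pin tool to RAW-Dual macrophages (50,000 cells/well, DMEM, 384-well plates), a PRR agonist was added 1 h later and the plates were kept at 37 °C, 5% CO2. Twenty hours later, IRF was read from supernatant by QuantiLuc luminescence and NF-κB by QuantiBlue absorbance at 620 nm. Reporter activity is stated as fold change over agonist-alone wells. Wells with IncuCyte confluency under 70% of agonist controls in both mask sets were counted as cytotoxic.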

[2] = system: RAW-Dual; assay: NF-kB SEAP reporter activity, fold change vs agonist alone; higher = enhanced NF-kB activity; details: library stock concentration (final ~1000-fold dilution): 10 mM, cytotoxicity flag (confluency mask): not cytotoxic
In short: as §1

[3] = agonist: ODN 1826 (TLR9) 0.5 ug/mL
[4] = agonist: Pam2CSK4 (TLR2/6) 0.1 ug/mL
[5] = agonist: Pam3CSK4 (TLR2/1) 0.1 ug/mL

`C=CCOc1ccccc1OCC(O)CNC(C)C.Cl` (configuration not stated) (library stock concentration (final ~1000-fold dilution): 10 mM) was tested, and the “NF-kB SEAP reporter activity” value ([1]; agonist: LPS (TLR4) 0.1 ug/mL) was 1.96, the “NF-kB SEAP reporter activity” value [1, 3] was 1.11 and the “NF-kB SEAP reporter activity” value [1, 4] was 1.03. The “NF-kB SEAP reporter activity” value [1, 5] was 1.33.
With `C=CCOc1ccccc1OCC(O)CNC(C)C.Cl` (configuration not stated) the “NF-kB SEAP reporter activity” value ([2]; agonist: Imiquimod (TLR7) […]) was 1.36 and the “NF-kB SEAP reporter activity” value ([2]; agonist: MPLA (TLR4) […]) was 1.27.
For `CCOC(N)=O`, the “NF-kB SEAP reporter activity” value ([2]; agonist: Imiquimod (TLR7) […]) was 0.941 and the “NF-kB SEAP reporter activity” value ([2]; agonist: MPLA (TLR4) […]) was 0.993.
`CCOC(N)=O` (library stock concentration (final ~1000-fold dilution): 10 mM) was tested, and the “NF-kB SEAP reporter activity” value ([1]; agonist: LPS (TLR4) 0.1 ug/mL) was 1.31, the “NF-kB SEAP reporter activity” value [1, 3] was 0.975 and the “NF-kB SEAP reporter activity” value [1, 4] was 1.21. For the same compound, the “NF-kB SEAP reporter activity” value [1, 5] was 1.16.
`CCc1c(N(CC)C2CCOCC2)cc2oc(C3CCN(C(C)C)CC3)cc2c1C(=O)NCc1c(C)cc(C)[nH]c1=O` was tested, and the “NF-kB SEAP reporter activity” value ([2]; agonist: Imiquimod (TLR7) […]) was 1.34 and the “NF-kB SEAP reporter activity” value ([2]; agonist: MPLA (TLR4) […]) was 1.04.
For `CCc1c(N(CC)C2CCOCC2)cc2oc(C3CCN(C(C)C)CC3)cc2c1C(=O)NCc1c(C)cc(C)[nH]c1=O` (library stock concentration (final ~1000-fold dilution): 10 mM), the “NF-kB SEAP reporter activity” value ([1]; agonist: LPS (TLR4) 0.1 ug/mL) was 1.13, the “NF-kB SEAP reporter activity” value [1, 3] was 0.983 and the “NF-kB SEAP reporter activity” value [1, 4] was 1.04. For the same compound, the “NF-kB SEAP reporter activity” value [1, 5] was 0.941.
With `COc1cc2ncnc(Nc3ccc(F)c(Cl)c3)c2cc1O` (library stock concentration (final ~1000-fold dilution): 10 mM) the “NF-kB SEAP reporter activity” value ([1]; agonist: LPS (TLR4) 0.1 ug/mL) was 1.64, the “NF-kB SEAP reporter activity” value [1, 3] was 1.09 and the “NF-kB SEAP reporter activity” value [1, 4] was 1.01. For the same compound, the “NF-kB SEAP reporter activity” value [1, 5] was 0.959.
In the case of `COc1cc2ncnc(Nc3ccc(F)c(Cl)c3)c2cc1O`, the “NF-kB SEAP reporter activity” value ([2]; agonist: MPLA (TLR4) […]) is reported as 1.41.
With `Nc1cc(C(F)(F)F)c(-c2cc(N3CCOCC3)nc(N3CCOCC3)n2)cn1` (library stock concentration (final ~1000-fold dilution): 10 mM) the “NF-kB SEAP reporter activity” value ([1]; agonist: LPS (TLR4) 0.1 ug/mL) was 2.59, the “NF-kB SEAP reporter activity” value [1, 3] was 2.07 and the “NF-kB SEAP reporter activity” value [1, 4] was 1.49. For the same compound, the “NF-kB SEAP reporter activity” value [1, 5] was 0.904.
`Nc1cc(C(F)(F)F)c(-c2cc(N3CCOCC3)nc(N3CCOCC3)n2)cn1` was tested, and the “NF-kB SEAP reporter activity” value ([2]; agonist: Imiquimod (TLR7) […]) was 1.71 and the “NF-kB SEAP reporter activity” value ([2]; agonist: MPLA (TLR4) […]) was 1.63.
With `CC(=O)N=c1sc(S(N)(=O)=O)nn1C` (library stock concentration (final ~1000-fold dilution): 10 mM) the “NF-kB SEAP reporter activity” value ([1]; agonist: LPS (TLR4) 0.1 ug/mL) was 1.38, the “NF-kB SEAP reporter activity” value [1, 3] was 0.959 and the “NF-kB SEAP reporter activity” value [1, 4] was 1.34. The “NF-kB SEAP reporter activity” value [1, 5] was 1.09.
`CC(=O)N=c1sc(S(N)(=O)=O)nn1C` was tested, and the “NF-kB SEAP reporter activity” value ([2]; agonist: Imiquimod (TLR7) […]) was 0.903 and the “NF-kB SEAP reporter activity” value ([2]; agonist: MPLA (TLR4) […]) was 1.01.
For `COCCCOc1ccnc(CS(=O)c2nc3ccccc3[nH]2)c1C` (configuration not stated), the “NF-kB SEAP reporter activity” value ([2]; agonist: MPLA (TLR4) […]) was 0.959.
With `COCCCOc1ccnc(CS(=O)c2nc3ccccc3[nH]2)c1C` (configuration not stated) (library stock concentration (final ~1000-fold dilution): 10 mM) the “NF-kB SEAP reporter activity” value ([1]; agonist: LPS (TLR4) 0.1 ug/mL) was 1.31, the “NF-kB SEAP reporter activity” value [1, 3] was 1.11 and the “NF-kB SEAP reporter activity” value [1, 4] was 1.14. The “NF-kB SEAP reporter activity” value [1, 5] was 0.792.
`Cc1ccc(Sc2cncc3sc(C(N)=O)cc23)cc1` (library stock concentration (final ~1000-fold dilution): 10 mM) was tested, and the “NF-kB SEAP reporter activity” value ([1]; agonist: LPS (TLR4) 0.1 ug/mL) was 2.89 and the “NF-kB SEAP reporter activity” value [1, 5] was 3.34.
`CC(C)NNC(=O)c1ccncc1` (library stock concentration (final ~1000-fold dilution): 10 mM) was tested, and the “NF-kB SEAP reporter activity” value ([1]; agonist: LPS (TLR4) 0.1 ug/mL) was 0.63, the “NF-kB SEAP reporter activity” value [1, 3] was 0.82 and the “NF-kB SEAP reporter activity” value [1, 4] was 0.805. For the same compound, the “NF-kB SEAP reporter activity” value [1, 5] was 0.674.
In the case of `CC(C)NNC(=O)c1ccncc1`, the “NF-kB SEAP reporter activity” value ([2]; agonist: MPLA (TLR4) […]) is reported as 0.681.
In the case of `COc1cc(OC)c(C(=O)CCCN2CCCC2)c(OC)c1.Cl`, the “NF-kB SEAP reporter activity” value ([2]; agonist: Imiquimod (TLR7) […]) is reported as 0.901 and the “NF-kB SEAP reporter activity” value ([2]; agonist: MPLA (TLR4) […]) is reported as 0.977.
With `COc1cc(OC)c(C(=O)CCCN2CCCC2)c(OC)c1.Cl` (library stock concentration (final ~1000-fold dilution): 10 mM) the “NF-kB SEAP reporter activity” value ([1]; agonist: LPS (TLR4) 0.1 ug/mL) was 1.16, the “NF-kB SEAP reporter activity” value [1, 3] was 1.04 and the “NF-kB SEAP reporter activity” value [1, 4] was 1.11. The “NF-kB SEAP reporter activity” value [1, 5] was 1.17.
For `O=C(Nc1ccc([N+](=O)[O-])cc1Cl)c1cc(Cl)ccc1O` (library stock concentration (final ~1000-fold dilution): 10 mM), the “NF-kB SEAP reporter activity” value ([1]; agonist: LPS (TLR4) 0.1 ug/mL) was 6.96.
For `O=C(Nc1cccnc1)N1CCC(Cc2cccc(Oc3ccc(C(F)(F)F)cn3)c2)CC1`, the “NF-kB SEAP reporter activity” value ([2]; agonist: Imiquimod (TLR7) […]) was 1.05 and the “NF-kB SEAP reporter activity” value ([2]; agonist: MPLA (TLR4) […]) was 1.46.
For `O=C(Nc1cccnc1)N1CCC(Cc2cccc(Oc3ccc(C(F)(F)F)cn3)c2)CC1` (library stock concentration (final ~1000-fold dilution): 10 mM), the “NF-kB SEAP reporter activity” value ([1]; agonist: LPS (TLR4) 0.1 ug/mL) was 2.31, the “NF-kB SEAP reporter activity” value [1, 3] was 1.06 and the “NF-kB SEAP reporter activity” value [1, 4] was 0.757. The “NF-kB SEAP reporter activity” value [1, 5] was 0.921.
With `Cc1cc(C)nc(NS(=O)(=O)c2ccc(NC(=S)NC(=O)COc3ccc(Br)cc3Cl)cc2)n1` (library stock concentration (final ~1000-fold dilution): 10 mM) the “NF-kB SEAP reporter activity” value ([1]; agonist: LPS (TLR4) 0.1 ug/mL) was 1.5, the “NF-kB SEAP reporter activity” value [1, 3] was 0.891 and the “NF-kB SEAP reporter activity” value [1, 4] was 1.07. For the same compound, the “NF-kB SEAP reporter activity” value [1, 5] was 1.01.
`Cc1cc(C)nc(NS(=O)(=O)c2ccc(NC(=S)NC(=O)COc3ccc(Br)cc3Cl)cc2)n1` was tested, and the “NF-kB SEAP reporter activity” value ([2]; agonist: Imiquimod (TLR7) […]) was 0.876 and the “NF-kB SEAP reporter activity” value ([2]; agonist: MPLA (TLR4) […]) was 1.15.
For `Cc1cccc(-c2nn3c(c2-c2ccnc4ccc(C(N)=O)cc24)CCC3)n1`, the “NF-kB SEAP reporter activity” value ([2]; agonist: Imiquimod (TLR7) […]) was 1.13 and the “NF-kB SEAP reporter activity” value ([2]; agonist: MPLA (TLR4) […]) was 1.48.
In the case of `Cc1cccc(-c2nn3c(c2-c2ccnc4ccc(C(N)=O)cc24)CCC3)n1` (library stock concentration (final ~1000-fold dilution): 10 mM), the “NF-kB SEAP reporter activity” value ([1]; agonist: LPS (TLR4) 0.1 ug/mL) is reported as 1.59, the “NF-kB SEAP reporter activity” value [1, 3] is reported as 1.03 and the “NF-kB SEAP reporter activity” value [1, 4] is reported as 1.05. The “NF-kB SEAP reporter activity” value [1, 5] was 1.21.
In the case of `O=C1Nc2ccccc2C1=O`, the “NF-kB SEAP reporter activity” value ([2]; agonist: MPLA (TLR4) […]) is reported as 0.991.
`O=C1Nc2ccccc2C1=O` (library stock concentration (final ~1000-fold dilution): 10 mM) was tested, and the “NF-kB SEAP reporter activity” value ([1]; agonist: LPS (TLR4) 0.1 ug/mL) was 1.37, the “NF-kB SEAP reporter activity” value [1, 3] was 0.973 and the “NF-kB SEAP reporter activity” value [1, 4] was 1.3. For the same compound, the “NF-kB SEAP reporter activity” value [1, 5] was 1.
